The supplement of paper PMC10126150
Values marked as one replicate rest on one cluster of the flow cell; about a third of the high ones do not repeat.
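Also: ATP exposure 15 min at 22 °C before imaging.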

What follows are sequences tested on ATP (assay: switch fluorescence ratio, 500 uM ATP over buffer (Cy3 cluster intensity, sum of 5 cycles each) (fold (ratio)); higher = stronger signal-on switching upon ATP binding; sequences stand for … in TCGTCGGCAGCGTCAGATGTGTATAAGAGACAGTTTTTTTTTTTTTTTTTTTTTTTTT…TC). Details: aptamer strand: ATP DNA aptamer (quencher-CACCTGGGGGAGTATTGCGGAGGAAGG + anchor), 100 nM annealed; ATP concentration: 500 uM; one replicate.
Method in brief: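 Clusters with intensities outside 100-1000 RFU were excluded. The remaining Cy3-labelled switching-strand clusters on a modified Illumina MiSeq flow-cell had been annealed to 100 nM quencher-labelled ATP aptamer and imaged in selection buffer, then after 15 min with 500 uM ATP at 22 °C, for five cycles separated by NaOH stripping and re-annealing. The fluorescence ratio, averaged per switch-domain sequence, is each cluster's summed target-cycle Cy3 intensity over its summed buffer-cycle Cy3 intensity.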
CCGAGAAACC was tested, and the switch fluorescence ratio was 1.63. With CCGAGAGGCA the switch fluorescence ratio was 1.27. In the case of CCGAGAGTGT, the switch fluorescence ratio was 1.1. In the case of CCGAGCTCGA, the switch fluorescence ratio was 1.15. CCGAGCTGTT was tested, and the switch fluorescence ratio was 1.19. In the case of CCGAGGGACA, the switch fluorescence ratio was 1.36. In the case of CCGAGGGCGA, the switch fluorescence ratio was 1.9. Sequence CCGAGGTGCT has a switch fluorescence ratio of 2.41. Sequence CCGAGGTGGT has a switch fluorescence ratio of 1.46. CCGATAATC gave a switch fluorescence ratio of 3.21. CCGATACATT gave a switch fluorescence ratio of 1.87. CCGATATCTT was tested, and the switch fluorescence ratio was 1.02. Work on CCGATCAGAG yielded a switch fluorescence ratio of 1.29. CCGATCGTC gave a switch fluorescence ratio of 2.68. Work on CCGATCGTTT yielded a switch fluorescence ratio of 1.82. Work on CCGATCTCTA yielded a switch fluorescence ratio of 1.1. CCGATGTTGT was tested, and the switch fluorescence ratio was 1.53. In the case of CCGATTCAGT, the switch fluorescence ratio was 1.95. Work on CCGATTCGAG yielded a switch fluorescence ratio of 1.12. Work on CCGCAGTTA yielded a switch fluorescence ratio of 4.31. Work on CCGCCGAGTC yielded a switch fluorescence ratio of 2.55. CCGCCTCCTT gave a switch fluorescence ratio of 3.08. CCGCCTGTTA gave a switch fluorescence ratio of 1.32. In the case of CCGCCTTTGA, the switch fluorescence ratio was 1.22. CCGCGCTTCT showed a switch fluorescence ratio of 1.52. CCGCGGCACG showed a switch fluorescence ratio of 1.5. CCGCTATTTA gave a switch fluorescence ratio of 2.48. In the case of CCGCTCTAAT, the switch fluorescence ratio was 2.08. For CCGCTGGGCC, the switch fluorescence ratio was 2.11. With CCGGACCAGC the switch fluorescence ratio was 1.58. For CCGGACGATA, the switch fluorescence ratio was 1.58. CCGGACGG was tested, and the switch fluorescence ratio was 1. Sequence CCGGAGAAAA has a switch fluorescence ratio of 1.1. For CCGGAGAAAG, the switch fluorescence ratio was 2.35. CCGGAGTGCA showed a switch fluorescence ratio of 3. For CCGGATTTC, the switch fluorescence ratio was 1.01. With CCGGCATATG the switch fluorescence ratio was 1.06. In the case of CCGGCCATCA, the switch fluorescence ratio was 1.06. Work on CCGGCCCTGT yielded a switch fluorescence ratio of 1.04. Sequence CCGGCCGAGT has a switch fluorescence ratio of 1.05. In the case of CCGGCCGGAC, the switch fluorescence ratio was 1.04. Work on CCGGCGGGTA yielded a switch fluorescence ratio of 1.03. CCGGCTAATT gave a switch fluorescence ratio of 1.17. For CCGGCTATGG, the switch fluorescence ratio was 1.25. CCGGCTGCTA was tested, and the switch fluorescence ratio was 1.78. In the case of CCGGGATCTC, the switch fluorescence ratio was 2.17. CCGGGCATAT gave a switch fluorescence ratio of 5.52. CCGGGCCACT gave a switch fluorescence ratio of 1.06. With CCGGGGAGG the switch fluorescence ratio was 1.05. For CCGGGGCCGC, the switch fluorescence ratio was 1.04. In the case of CCGGGGGCG, the switch fluorescence ratio was 0.947. With CCGGGGGCGC the switch fluorescence ratio was 1.06. CCGGGGTTAA showed a switch fluorescence ratio of 2.56. For CCGGGTACCC, the switch fluorescence ratio was 1.04. CCGGGTCCGA showed a switch fluorescence ratio of 1.03. In the case of CCGGGTGCCT, the switch fluorescence ratio was 1.17. For CCGGTCATCG, the switch fluorescence ratio was 0.976. With CCGGTGATGC the switch fluorescence ratio was 1.86. In the case of CCGGTGTACG, the switch fluorescence ratio was 1.1. Work on CCGGTTATAG yielded a switch fluorescence ratio of 2.04. CCGGTTTAC was tested, and the switch fluorescence ratio was 2.7. Sequence CCGGTTTCGG has a switch fluorescence ratio of 1.05. Work on CCGGTTTGCA yielded a switch fluorescence ratio of 1.37. Sequence CCGTACGGTA has a switch fluorescence ratio of 1.03. CCGTACTTGA gave a switch fluorescence ratio of 1.05. In the case of CCGTAGATGT, the switch fluorescence ratio was 1.47. For CCGTATAGC, the switch fluorescence ratio was 3.04. In the case of CCGTATAGGG, the switch fluorescence ratio was 1.29. For CCGTCATAT, the switch fluorescence ratio was 2.2. CCGTCCTGCG showed a switch fluorescence ratio of 1.04. With CCGTCTATGT the switch fluorescence ratio was 1.09. CCGTCTGATT showed a switch fluorescence ratio of 0.96. For CCGTCTTAGA, the switch fluorescence ratio was 0.998. For CCGTGGGGTG, the switch fluorescence ratio was 1.08. CCGTGTATGA gave a switch fluorescence ratio of 1.03. In the case of CCGTGTCTGG, the switch fluorescence ratio was 1.
